Substrate: Cc1c2[nH]c3cc(OCc4ccccc4)ccc3c2cc[n+]1Cc1ccccc1
Assay: Determination of Km and Vmax of the CYP3A4-catalyzed O-dealkylation reaction (LC-MS quantification of reaction product 1b)
Type: biochemical, human
Settings: other: substrate of O-dealkylation to 1b, 5 pmol/ml CYP3A4, 2 mM NADPH, pH 7.4, 20 minutes at 37°C
Protocol: The Michaelis-Menten constant (Km) and the maximal reaction velocity (Vmax) are important parameters for inhibition assays. To determine the inhibitory activity of test compounds the substrate concentration in the assay should be about the Km value. […] After incubation for 20 minutes at 37°C the reaction product 1b was quantified using mass spectrometry after liquid chromatography. […] For the calculation of Km and Vmax the Sigma Plot 10.0 software with enzyme kinetic module (SPSS, Inc., Chicago, IL, USA) was used.

B1: recombinant human CYP3A4 (Homo sapiens) (protein)
chain: MALIPDLAMETWLLLAVSLVLLYLYGTHSHGLFKKLGIPGPTPLPFLGNILSYHKGFCMFDMECHKKYGKVWGFYDGQQPVLAITDPDMIKTVLVKECYSVFTNRRPFGPVGFMKSAISIAEDEEWKRLRSLLSPTFTSGKLKEMVPIIAQYGDVLVRNLRREAETGKPVTLKDVFGAYSMDVITSTSFGVNIDSLNNPQDPFVENTKKLLRFDFLDPFFLSITVFPFLIPILEVLNICVFPREVTNFLRKSVKRMKESRLEDTQKHRVDFLQLMIDSQNSKETESHKALSDLELVAQSIIFIFAGYETTSSVLSFIMYELATHPDVQQKLQEEIDAVLPNKAPPTYDTVLQMEYLDMVVNETLRLFPIAMRLERVCKKDVEINGMFIPKGVVVMIPSYALHRDPKYWTEPEKFLPERFSKKNKDNIDPYIYTPFGSGPRNCIGMRFALMNMKLALIRVLQNFSFKPCKETQIPLKLSLGGLLQPEKPVVLKVESRDGTVSGA
notes: purchased BD Biosciences (Supersomes)
Work on B1 yielded a Km of 1.6 µM and a kcat of 7.7 pmol/min/pmol CYP3A4.
